Reference: the supplement of paper PMC4604168 (melanoma cell lines)
The list shows a part of the results. Many values rest on one well or one pass, so single values are uncertain.

system: A101D; test: cell count relative to DMSO control; melanoma cells; higher = more viable cells; conditions: library dose: standard library concentration; 72 h
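Further: cells treated in 1,536-well plates, then fixed and DAPI-stained, with nuclei counted from automated high-throughput microscope images.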

SMILES | cell count [%]
Cc1cc(Nc2cc(N3CCN(C)CC3)nc(Sc3ccc(NC(=O)C4CC4)cc3)n2)n[nH]1 [Tozasertib] + Nc1ccn([C@@H]2O[C@H](CO)[C@@H](O)C2(F)F)c(=O)n1 [gemcitabine] (first compound 0.03 µM, partner dose 0.002 µM) | 90.3
CC[C@]1(O)C[C@H]2CN(CCc3c([nH]c4ccccc34)[C@@](C(=O)OC)(c3cc4c(cc3OC)N(C=O)[C@H]3[C@@](O)(C(=O)OC)[C@H](OC(C)=O)[C@]5(CC)C=CCN6CC[C@]43[C@@H]65)C2)C1 [vincristine] + COc1cc(Nc2ncc(F)c(Nc3ccc4c(n3)NC(=O)C(C)(C)O4)n2)cc(OC)c1OC [Tamatinib] (first compound 0.0005 µM, partner dose 2 µM) | 16.7
CC[C@]1(O)C[C@H]2CN(CCc3c([nH]c4ccccc34)[C@@](C(=O)OC)(c3cc4c(cc3OC)N(C=O)[C@H]3[C@@](O)(C(=O)OC)[C@H](OC(C)=O)[C@]5(CC)C=CCN6CC[C@]43[C@@H]65)C2)C1 [vincristine] + C[C@]1(c2nc3c(C(N)=O)cccc3[nH]2)CCCN1 [Veliparib] (first compound 0.0005 µM, partner dose 7 µM) | 33.9
N#CC[C@H](C1CCCC1)n1cc(-c2ncnc3[nH]ccc23)cn1 [ruxolitinib] + OCc1c[nH]c2ccccc12 [Indole-3-carbinol] (first compound 5 µM, partner dose 4 µM) | 120
Cc1cc(Nc2cc(N3CCN(C)CC3)nc(Sc3ccc(NC(=O)C4CC4)cc3)n2)n[nH]1 [Tozasertib] + CO[C@@H]1[C@H](N(C)C(=O)c2ccccc2)C[C@H]2O[C@]1(C)n1c3ccccc3c3c4c(c5c6ccccc6n2c5c31)C(=O)NC4 [Midostaurin] (first compound 0.03 µM, partner dose 0.4 µM) | 67.5
N#CC[C@H](C1CCCC1)n1cc(-c2ncnc3[nH]ccc23)cn1 [ruxolitinib] + COCC[n+]1c2c(n(Cc3cnccn3)c1C)C(=O)c1ccccc1C2=O [YM155] (first compound 5 µM, partner dose 0.002 µM) | 94.2
N#CC[C@H](C1CCCC1)n1cc(-c2ncnc3[nH]ccc23)cn1 [ruxolitinib] + NC1(c2ccc(-c3nc4ccn5c(=O)[nH]nc5c4cc3-c3ccccc3)cc2)CCC1 [MK2206] (first compound 5 µM, partner dose 2 µM) | 104
Cc1cc(Nc2cc(N3CCN(C)CC3)nc(Sc3ccc(NC(=O)C4CC4)cc3)n2)n[nH]1 [Tozasertib] + CC(C)CCN1c2nc(Nc3cc(F)c(O)c(F)c3)ncc2N(C)C(=O)C1C [BID1870] (first compound 0.03 µM, partner dose 1 µM) | 62.3
CC[C@]1(O)C[C@H]2CN(CCc3c([nH]c4ccccc34)[C@@](C(=O)OC)(c3cc4c(cc3OC)N(C=O)[C@H]3[C@@](O)(C(=O)OC)[C@H](OC(C)=O)[C@]5(CC)C=CCN6CC[C@]43[C@@H]65)C2)C1 [vincristine] + C=CCNC1=C2C[C@@H](C)C[C@H](OC)[C@H](O)[C@@H](C)/C=C(\C)[C@H](OC(N)=O)[C@@H](OC)/C=C\C=C(/C)C(=O)NC(=CC1=O)C2=O [Tanespimycin] (first compound 0.0005 µM, partner dose 0.01 µM) | 62.9
N#CC[C@H](C1CCCC1)n1cc(-c2ncnc3[nH]ccc23)cn1 [ruxolitinib] + Cc1cn(-c2cc(NC(=O)c3ccc(C)c(Nc4nccc(-c5cccnc5)n4)c3)cc(C(F)(F)F)c2)cn1 [nilotinib] (first compound 5 µM, partner dose 1 µM) | 130
N#CC[C@H](C1CCCC1)n1cc(-c2ncnc3[nH]ccc23)cn1 [ruxolitinib] + CO[C@@H]1[C@H](N(C)C(=O)c2ccccc2)C[C@H]2O[C@]1(C)n1c3ccccc3c3c4c(c5c6ccccc6n2c5c31)C(=O)NC4 [Midostaurin] (first compound 5 µM, partner dose 0.4 µM) | 59.9
N#CC[C@H](C1CCCC1)n1cc(-c2ncnc3[nH]ccc23)cn1 [ruxolitinib] + O=C(/C=C/c1cccnc1)NCCCCC1CCN(C(=O)c2ccccc2)CC1 [FK866] (first compound 5 µM, partner dose 0.05 µM) | 103
Cc1cc(Nc2cc(N3CCN(C)CC3)nc(Sc3ccc(NC(=O)C4CC4)cc3)n2)n[nH]1 [Tozasertib] + Cn1c(=O)n(-c2ccc(C(C)(C)C#N)cc2)c2c3cc(-c4cnc5ccccc5c4)ccc3ncc21 [NVP-BEZ235] (first compound 0.03 µM, partner dose 0.02 µM) | 76.5
Cc1cc(Nc2cc(N3CCN(C)CC3)nc(Sc3ccc(NC(=O)C4CC4)cc3)n2)n[nH]1 [Tozasertib] + N#CC[C@H](C1CCCC1)n1cc(-c2ncnc3[nH]ccc23)cn1 [ruxolitinib] (first compound 0.03 µM, partner dose 5 µM) | 90.3
Cc1cc(Nc2cc(N3CCN(C)CC3)nc(Sc3ccc(NC(=O)C4CC4)cc3)n2)n[nH]1 [Tozasertib] + CS(=O)(=O)CCNCc1ccc(-c2ccc3ncnc(Nc4ccc(OCc5cccc(F)c5)c(Cl)c4)c3c2)o1 [lapatinib] (first compound 0.03 µM, partner dose 4 µM) | 70.8
Cc1cc(Nc2cc(N3CCN(C)CC3)nc(Sc3ccc(NC(=O)C4CC4)cc3)n2)n[nH]1 [Tozasertib] + Nc1nc(F)nc2c1ncn2[C@@H]1O[C@H](CO)[C@@H](O)[C@@H]1O [fludarabine] (first compound 0.03 µM, partner dose 1 µM) | 73
CC[C@]1(O)C[C@H]2CN(CCc3c([nH]c4ccccc34)[C@@](C(=O)OC)(c3cc4c(cc3OC)N(C=O)[C@H]3[C@@](O)(C(=O)OC)[C@H](OC(C)=O)[C@]5(CC)C=CCN6CC[C@]43[C@@H]65)C2)C1 [vincristine] + Cc1ccc(NC(=O)c2cccc(N(C)C)c2)cc1NC(=O)c1ccc(O)cc1 [ZM336372] (first compound 0.0005 µM, partner dose 10 µM) | 37.4
CC[C@]1(O)C[C@H]2CN(CCc3c([nH]c4ccccc34)[C@@](C(=O)OC)(c3cc4c(cc3OC)N(C=O)[C@H]3[C@@](O)(C(=O)OC)[C@H](OC(C)=O)[C@]5(CC)C=CCN6CC[C@]43[C@@H]65)C2)C1 [vincristine] + CC(C)C[C@H](NC(=O)[C@H](Cc1ccccc1)NC(=O)c1cnccn1)B(O)O [Bortezomib] (first compound 0.0005 µM, partner dose 0.005 µM) | 7.87
Cc1cc(Nc2cc(N3CCN(C)CC3)nc(Sc3ccc(NC(=O)C4CC4)cc3)n2)n[nH]1 [Tozasertib] + C[C@@H]1CCN(C(=O)CC#N)C[C@@H]1N(C)c1ncnc2[nH]ccc12 [CP690550] (first compound 0.03 µM, partner dose 5 µM) | 93.8
Cc1cc(Nc2cc(N3CCN(C)CC3)nc(Sc3ccc(NC(=O)C4CC4)cc3)n2)n[nH]1 [Tozasertib] + COc1ccc(C2=N[C@@H](c3ccc(Cl)cc3)[C@@H](c3ccc(Cl)cc3)N2C(=O)N2CCNC(=O)C2)c(OC(C)C)c1 [Nutlin-3] (first compound 0.03 µM, partner dose 0.5 µM) | 77.1
N#CC[C@H](C1CCCC1)n1cc(-c2ncnc3[nH]ccc23)cn1 [ruxolitinib] + CCN(CC)CCCCNc1ncc2cc(-c3cc(OC)cc(OC)c3)c(NC(=O)NC(C)(C)C)nc2n1 [PD173074] (first compound 5 µM, partner dose 0.5 µM) | 131
Cc1cc(Nc2cc(N3CCN(C)CC3)nc(Sc3ccc(NC(=O)C4CC4)cc3)n2)n[nH]1 [Tozasertib] + CCCCCCCCCCCCCCCCCCOP(=O)([O-])OC1CC[N+](C)(C)CC1 [Perifosine] (first compound 0.03 µM, partner dose 2 µM) | 89.1
Cc1cc(Nc2cc(N3CCN(C)CC3)nc(Sc3ccc(NC(=O)C4CC4)cc3)n2)n[nH]1 [Tozasertib] + O=C(CCCCCCC(=O)Nc1ccccc1)NO [vorinostat] (first compound 0.03 µM, partner dose 0.4 µM) | 78.7
N#CC[C@H](C1CCCC1)n1cc(-c2ncnc3[nH]ccc23)cn1 [ruxolitinib] + CCCS(=O)(=O)Nc1ccc(F)c(C(=O)c2c[nH]c3ncc(Cl)cc23)c1F [PLX4720] (first compound 5 µM, partner dose 0.4 µM) | 80
Cc1cc(Nc2cc(N3CCN(C)CC3)nc(Sc3ccc(NC(=O)C4CC4)cc3)n2)n[nH]1 [Tozasertib] + CN(C)S(=O)(=O)c1ccc2c(c1)/C(=C/c1cc3c([nH]1)CCCC3)C(=O)N2 [SU6656] (first compound 0.03 µM, partner dose 2 µM) | 60.4
Cc1cc(Nc2cc(N3CCN(C)CC3)nc(Sc3ccc(NC(=O)C4CC4)cc3)n2)n[nH]1 [Tozasertib] + Cc1cc(N2CCOCC2)cc2[nH]c(-c3c(NC[C@@H](O)c4cccc(Cl)c4)cc[nH]c3=O)nc12 [BMS536924] (first compound 0.03 µM, partner dose 1 µM) | 97.2
Cc1cc(Nc2cc(N3CCN(C)CC3)nc(Sc3ccc(NC(=O)C4CC4)cc3)n2)n[nH]1 [Tozasertib] + C[C@]1(c2nc3c(C(N)=O)cccc3[nH]2)CCCN1 [Veliparib] (first compound 0.03 µM, partner dose 7 µM) | 69.9
